Test results published in the supplement of paper PMC10126150.
Sequences with one replicate were seen in a single cluster, so their values are uncertain.

Each sequence was assayed on ATP (assay: switch fluorescence ratio, 500 uM ATP over buffer (Cy3 cluster intensity, sum of 5 cycles each) (fold (ratio)); higher = stronger signal-on switching upon ATP binding; sequences stand for … in TCGTCGGCAGCGTCAGATGTGTATAAGAGACAGTTTTTTTTTTTTTTTTTTTTTTTTT…TC). Conditions: aptamer strand: ATP DNA aptamer (quencher-CACCTGGGGGAGTATTGCGGAGGAAGG + anchor), 100 nM annealed; ATP concentration: 500 uM; one replicate.
Outline: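 Imaging in selection buffer was followed by imaging after 15 min with 500 uM ATP at 22 °C, for Cy3-labelled switching-strand clusters annealed to 100 nM quencher-labelled ATP aptamer on a modified Illumina MiSeq flow-cell. Five of these buffer/ATP cycles ran, separated by NaOH stripping and re-annealing. The fluorescence ratio per cluster is summed target-cycle over summed buffer-cycle Cy3 intensity, averaged per switch-domain sequence; clusters outside 100-1000 RFU were removed.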
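Further: ATP exposure 15 min at 22 °C before imaging.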

Q: CCGCGAAAAG was tested. Which switch fluorescence ratio did it give?
A: 1.17

Q: Which switch fluorescence ratio does the source give for AGGCGGCTTA here?
A: 0.974

Q: GGAAGATTGT was tested. Which switch fluorescence ratio did it give?
A: 1.01

Q: Which switch fluorescence ratio does the source give for TCTCCCTTTT here?
A: 0.995

Q: For CCAGTCTGTT, which switch fluorescence ratio is on record?
A: 1.02

Q: How did the switch fluorescence ratio turn out when TGGACGCCTC was run?
A: 1.05

Q: For TGAGACCGGT, which switch fluorescence ratio is on record?
A: 0.932

Q: CGGACGTTGC was tested. Which switch fluorescence ratio did it give?
A: 2.05

Q: CCCCAGCCGC was tested. Which switch fluorescence ratio did it give?
A: 2.18

Q: Which switch fluorescence ratio does the source give for ACTAAACCTG here?
A: 1.47

Q: Which switch fluorescence ratio does the source give for CCATAGTAAT here?
A: 4.76

Q: With GTTTGCGT as the sequence, how does the switch fluorescence ratio read?
A: 0.979

Q: Which switch fluorescence ratio does the source give for AAATCTTTGC here?
A: 1.01

Q: How did the switch fluorescence ratio turn out when CATTAGTCTG was run?
A: 1.01

Q: With CGTATGTTTC as the sequence, how does the switch fluorescence ratio read?
A: 1.04

Q: For CCGGTGGTCA, which switch fluorescence ratio is on record?
A: 1.14

Q: Which switch fluorescence ratio does the source give for GCTAGATAGG here?
A: 1.03

Q: Which switch fluorescence ratio does the source give for TTGCCGGAG here?
A: 1.04

Q: CATGTTGTTC was tested. Which switch fluorescence ratio did it give?
A: 0.981

Q: Which switch fluorescence ratio does the source give for ACACACATGG here?
A: 1.26

Q: For AACGACTGAT, which switch fluorescence ratio is on record?
A: 1.03

Q: For TCTGTATGGG, which switch fluorescence ratio is on record?
A: 0.959

Q: With TCCGCGCGTG as the sequence, how does the switch fluorescence ratio read?
A: 1.25

Q: AATACGTGCA was tested. Which switch fluorescence ratio did it give?
A: 1.04

Q: How did the switch fluorescence ratio turn out when CTTTTAGTCT was run?
A: 1.01

Q: Which switch fluorescence ratio does the source give for TAGTTATTCG here?
A: 1.03

Q: For TGTCAATAAT, which switch fluorescence ratio is on record?
A: 1

Q: With CTGGGTTAA as the sequence, how does the switch fluorescence ratio read?
A: 0.976

Q: TTGGCGAGCG was tested. Which switch fluorescence ratio did it give?
A: 1.01

Q: How did the switch fluorescence ratio turn out when ATCGCACCAT was run?
A: 1.1

Q: TTACTTCAAC was tested. Which switch fluorescence ratio did it give?
A: 1.06

Q: For ATACCGGGCA, which switch fluorescence ratio is on record?
A: 1.02

Q: For GAGCTTGTAG, which switch fluorescence ratio is on record?
A: 1.02

Q: Which switch fluorescence ratio does the source give for CGGGGACTTA here?
A: 0.981

Q: With TCGTCGAGAG as the sequence, how does the switch fluorescence ratio read?
A: 1

Q: With GCTGTGAGAT as the sequence, how does the switch fluorescence ratio read?
A: 0.985

Q: TAGATGTTAT was tested. Which switch fluorescence ratio did it give?
A: 1.01

Q: CCTTATATTG was tested. Which switch fluorescence ratio did it give?
A: 0.994

Q: Which switch fluorescence ratio does the source give for TTTGCGGATC here?
A: 0.971

Q: With ATTTCGGTA as the sequence, how does the switch fluorescence ratio read?
A: 0.973

Q: Which switch fluorescence ratio does the source give for ATGAATTGAT here?
A: 1.02

Q: Which switch fluorescence ratio does the source give for ATAGAGCCGA here?
A: 0.933

Q: With AAGACACAAC as the sequence, how does the switch fluorescence ratio read?
A: 1.09

Q: For GCATCATGAA, which switch fluorescence ratio is on record?
A: 1

Q: With CTGGATTTTT as the sequence, how does the switch fluorescence ratio read?
A: 1.04

Q: For AGTTAATGC, which switch fluorescence ratio is on record?
A: 1.09

Q: With AGCGGGTCCA as the sequence, how does the switch fluorescence ratio read?
A: 1.06

Q: How did the switch fluorescence ratio turn out when CTACCCTGGT was run?
A: 1.11

Q: ATACTATGAC was tested. Which switch fluorescence ratio did it give?
A: 1.1

Q: For TGCTTTGGTA, which switch fluorescence ratio is on record?
A: 1.01

Q: How did the switch fluorescence ratio turn out when ATTCTCAGG was run?
A: 1.03

Q: With TTCTACGCGC as the sequence, how does the switch fluorescence ratio read?
A: 2.62

Q: Which switch fluorescence ratio does the source give for GATAGTTACT here?
A: 1.01

Q: How did the switch fluorescence ratio turn out when GTGATATAGT was run?
A: 0.96

Q: TCGTTTGCTC was tested. Which switch fluorescence ratio did it give?
A: 1.07

Q: With TATTCTGCG as the sequence, how does the switch fluorescence ratio read?
A: 0.988

Q: CGTTTACCAG was tested. Which switch fluorescence ratio did it give?
A: 0.989

Q: How did the switch fluorescence ratio turn out when TCATACGATG was run?
A: 1.02

Q: AGCTTGCGTC was tested. Which switch fluorescence ratio did it give?
A: 0.997

Q: AATGGGAGTC was tested. Which switch fluorescence ratio did it give?
A: 1

Q: Which switch fluorescence ratio does the source give for GCCCCTGTCA here?
A: 0.966

Q: TAACCGGTAG was tested. Which switch fluorescence ratio did it give?
A: 0.986

Q: Which switch fluorescence ratio does the source give for GGAATCAAA here?
A: 1.01

Q: For CGCGGGGTCG, which switch fluorescence ratio is on record?
A: 0.941

Q: Which switch fluorescence ratio does the source give for AACGTTA here?
A: 1.03

Q: With TTTGAACAAG as the sequence, how does the switch fluorescence ratio read?
A: 1.06

Q: Which switch fluorescence ratio does the source give for CCTTAAGGAC here?
A: 1.07

Q: For GAAATCACAT, which switch fluorescence ratio is on record?
A: 1.04

Q: TTACGGACCA was tested. Which switch fluorescence ratio did it give?
A: 1.27

Q: How did the switch fluorescence ratio turn out when CTTTTTCACC was run?
A: 1.05

Q: For GTCCGTTCAA, which switch fluorescence ratio is on record?
A: 1.24

Q: For ACATGGTTCC, which switch fluorescence ratio is on record?
A: 1.02

Q: How did the switch fluorescence ratio turn out when TGGTGGGCCT was run?
A: 0.934

Q: With AGCCATGAGC as the sequence, how does the switch fluorescence ratio read?
A: 0.985

Q: For CTATGAGAGT, which switch fluorescence ratio is on record?
A: 0.991

Q: GCGTCAATAT was tested. Which switch fluorescence ratio did it give?
A: 4.32

Q: Which switch fluorescence ratio does the source give for TGTGTAGGTC here?
A: 1.04

Q: For AAATTACACA, which switch fluorescence ratio is on record?
A: 1

Q: How did the switch fluorescence ratio turn out when CCGTGGCGTT was run?
A: 1.06

Q: For TGCAGTTGC, which switch fluorescence ratio is on record?
A: 0.972

Q: How did the switch fluorescence ratio turn out when TTTCTTTACC was run?
A: 1.05

Q: CGGATACGTT was tested. Which switch fluorescence ratio did it give?
A: 0.988

Q: How did the switch fluorescence ratio turn out when GGACTGGGAT was run?
A: 0.997

Q: For CGATCGTATG, which switch fluorescence ratio is on record?
A: 0.897

Q: TATCACTAAT was tested. Which switch fluorescence ratio did it give?
A: 0.988

Q: How did the switch fluorescence ratio turn out when CATCTAGTTT was run?
A: 0.998

Q: How did the switch fluorescence ratio turn out when TAAGGGTGAA was run?
A: 0.959

Q: How did the switch fluorescence ratio turn out when AATGAGGAAT was run?
A: 0.947

Q: How did the switch fluorescence ratio turn out when TCAGGGTAGA was run?
A: 0.992

Q: TGTTTTCGCG was tested. Which switch fluorescence ratio did it give?
A: 1

Q: How did the switch fluorescence ratio turn out when TCTTAAAAAA was run?
A: 1.01

Q: With GTCGTAATAG as the sequence, how does the switch fluorescence ratio read?
A: 1.52

Q: CGAAACTCGG was tested. Which switch fluorescence ratio did it give?
A: 1.01

Q: How did the switch fluorescence ratio turn out when AAATGAGATA was run?
A: 1

Q: With CTCCTCTAT as the sequence, how does the switch fluorescence ratio read?
A: 1.38

Q: Which switch fluorescence ratio does the source give for TAGAGGTTGC here?
A: 1

Q: TCTAAATTTC was tested. Which switch fluorescence ratio did it give?
A: 1.01

Q: GGGTTATGT was tested. Which switch fluorescence ratio did it give?
A: 0.988

Q: How did the switch fluorescence ratio turn out when GCGAAATTTT was run?
A: 1

Q: With TTTACAACAG as the sequence, how does the switch fluorescence ratio read?
A: 0.971
